Data: the supplement of paper PMC8728848
The other results are listed elsewhere or left out.

Key:
Test in all cases: glycan array binding signal (z-score within array); higher = stronger binding
Details in all cases: glycan notation: IUPAC condensed, linker removed; mutation: E347A
[1] = target: Gal(b1-3)[Fuc(a1-4)]GlcNAc(b1-3)Gal(b1-4)[Fuc(a1-3)]GlcNAc
How it was run: (§1)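 Glycan array data were curated from 3228 arrays in the Consortium for Functional Glycomics database and kept only where the protein sequence was available. Glycan names were converted to IUPAC-condensed notation, and columns mapping to the same glycan were averaged. The binding signal is a within-array Z-score, averaged across arrays of the same protein sequence at different concentrations or buffers and across linkers. Negative Z-scores can be read as non-binding.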

[2] = target: Gal(b1-3)[GlcNAc(b1-6)]GalNAc
How it was run: as §1

[3] = target: Gal(b1-3)[Neu5Ac(a2-6)]GalNAc
How it was run: as §1

[4] = target: Gal(b1-3)[Neu5Ac(a2-6)]GlcNAc(b1-6)Gal(b1-4)Glc
How it was run: as §1

[5] = target: Gal(b1-3)[Neu5Ac(b2-6)]GalNAc
How it was run: as §1

[6] = target: Gal(b1-4)GalNAc(a1-3)[Fuc(a1-2)]Gal(b1-4)GlcNAc
How it was run: as §1

[7] = target: Gal(b1-4)GalNAc(b1-3)[Fuc(a1-2)]Gal(b1-4)GlcNAc
How it was run: as §1

[8] = target: Gal(b1-4)Glc
How it was run: as §1

[9] = target: Gal(b1-4)Glc6S
How it was run: as §1

[10] = target: Gal(b1-4)GlcNAc
How it was run: as §1

[11] = target: Gal(b1-4)GlcNAc(a1-6)Gal(b1-4)GlcNAc
How it was run: as §1

[12] = target: Gal(b1-4)GlcNAc(b1-2)Man(a1-3)[Gal(b1-4)GlcNAc(b1-2)Man(a1-6)]Man(b1-4)GlcNAc(b1-4)GlcNAc
How it was run: as §1

[13] = target: Gal(b1-4)GlcNAc(b1-3)Gal(b1-3)GlcNAc
How it was run: as §1

[14] = target: Gal(b1-4)GlcNAc(b1-3)Gal(b1-4)Glc
How it was run: as §1

[15] = target: Gal(b1-4)GlcNAc(b1-3)Gal(b1-4)GlcNAc
How it was run: as §1

[16] = target: Gal(b1-4)GlcNAc(b1-3)Gal(b1-4)GlcNAc(b1-3)Gal(b1-4)GlcNAc
How it was run: as §1

[17] = target: Gal(b1-4)GlcNAc(b1-3)Gal(b1-4)[Fuc(a1-3)]GlcNAc(b1-3)Gal(b1-4)[Fuc(a1-3)]GlcNAc
How it was run: as §1

[18] = target: Gal(b1-4)GlcNAc(b1-3)GalNAc
How it was run: as §1

[19] = target: Gal(b1-4)GlcNAc(b1-3)[Gal(b1-4)GlcNAc(b1-6)]Gal(b1-4)GlcNAc
How it was run: as §1

[20] = target: Gal(b1-4)GlcNAc(b1-3)[GlcNAc(b1-6)]Gal(b1-4)GlcNAc
How it was run: as §1

[21] = target: Gal(b1-4)GlcNAc(b1-6)Gal(b1-4)GlcNAc
How it was run: as §1

[22] = target: Gal(b1-4)GlcNAc(b1-6)Gal(b1-4)GlcNAc(b1-6)GalNAc
How it was run: as §1

[23] = target: Gal(b1-4)GlcNAc(b1-6)GalNAc
How it was run: as §1

[24] = target: Gal(b1-4)GlcNAc(b1-6)[Gal(b1-3)]GalNAc
How it was run: as §1

[25] = target: Gal3S(b1-3)GalNAc
How it was run: as §1

[26] = target: Gal3S(b1-3)GlcNAc
How it was run: as §1

[27] = target: Gal3S(b1-3)[Fuc(a1-4)]GlcNAc
How it was run: as §1

[28] = target: Gal3S(b1-4)Glc
How it was run: as §1

[29] = target: Gal3S(b1-4)Glc6S
How it was run: as §1

[30] = target: Gal3S(b1-4)GlcNAc
How it was run: as §1

[31] = target: Gal3S(b1-4)GlcNAc6S
How it was run: as §1

[32] = target: Gal3S(b1-4)[Fuc(a1-3)]Glc
How it was run: as §1

[33] = target: Gal3S4S(b1-4)GlcNAc
How it was run: as §1

[34] = target: Gal3S6S(b1-4)GlcNAc
How it was run: as §1

[35] = target: Gal3S6S(b1-4)GlcNAc6S
How it was run: as §1

[36] = target: Gal4S(b1-4)GlcNAc
How it was run: as §1

[37] = target: Gal4S6S(b1-4)GlcNAc
How it was run: as §1

[38] = target: Gal6S(b1-4)Glc
How it was run: as §1

[39] = target: Gal6S(b1-4)Glc6S
How it was run: as §1

[40] = target: Gal6S(b1-4)GlcNAc
How it was run: as §1

[41] = target: Gal6S(b1-4)GlcNAc6S
How it was run: as §1

[42] = target: GalNAc(a1-3)Gal
How it was run: as §1

[43] = target: GalNAc(a1-3)GalNAc
How it was run: as §1

[44] = target: GalNAc(b1-3)Gal
How it was run: as §1

[45] = target: GalNAc(b1-3)Gal(a1-4)Gal(b1-4)GlcNAc
How it was run: as §1

B1: Surfactant Protein D (Human); Neck + Carbohydrate Recognition Domain (NCRD) (Homo sapiens) (protein)
chain: MLLFLLSALVLLTQPLGYLEAEMKTYSHRTMPSACTLVMCSSVESGLPGRDRDGREGPRGEKGDPGLPGAAGQAGMPGQAGPVGPKGDNGSVGEPGPKGDTGPSGPPGPPGVPGPAGREGALGKQGNIGPQGKPGPKGEAGPKGEVGAPGMQGSAGARGLAGPKGERGVPGERGVPGNTGAAGSAGAMGPQGSPGARGPPGLKGDKGIPGDKGAKGESGLPDVASLRQQVEALQGQVQHLQAAFSQYKKVELFPNGQSVGEKIFKTAQFVKPFTEAQLLCTQAGGQLASPRSAAENAALQQLVVAKNEAAFLSMTDSKTEGKFTYPTGESLVYSNWAPGEPNDDGGSADCVEIFTNGKWNDRACGAKRLVVCEF
[1]
  glycan array binding signal (z-score): -0.462
[2]
  glycan array binding signal (z-score): -0.15
[3]
  glycan array binding signal (z-score): 0.169
[4]
  glycan array binding signal (z-score): -0.424
[5]
  glycan array binding signal (z-score): -0.188
[6]
  glycan array binding signal (z-score): -0.127
[7]
  glycan array binding signal (z-score): -0.491
[8]
  glycan array binding signal (z-score): -0.423
[9]
  glycan array binding signal (z-score): -0.101
[10]
  glycan array binding signal (z-score): -0.359
[11]
  glycan array binding signal (z-score): -0.244
[12]
  glycan array binding signal (z-score): -0.49
[13]
  glycan array binding signal (z-score): -0.253
[14]
  glycan array binding signal (z-score): -0.174
[15]
  glycan array binding signal (z-score): 0.532
[16]
  glycan array binding signal (z-score): -0.292
[17]
  glycan array binding signal (z-score): -0.248
[18]
  glycan array binding signal (z-score): -0.384
[19]
  glycan array binding signal (z-score): 0.161
[20]
  glycan array binding signal (z-score): -0.287
[21]
  glycan array binding signal (z-score): -0.317
[22]
  glycan array binding signal (z-score): 0.971
[23]
  glycan array binding signal (z-score): -0.112
[24]
  glycan array binding signal (z-score): -0.346
[25]
  glycan array binding signal (z-score): -0.034
[26]
  glycan array binding signal (z-score): 0.156
[27]
  glycan array binding signal (z-score): 0.518
[28]
  glycan array binding signal (z-score): 0.128
[29]
  glycan array binding signal (z-score): 0.558
[30]
  glycan array binding signal (z-score): 0.095
[31]
  glycan array binding signal (z-score): 0.483
[32]
  glycan array binding signal (z-score): 0.432
[33]
  glycan array binding signal (z-score): 0.14
[34]
  glycan array binding signal (z-score): 0.47
[35]
  glycan array binding signal (z-score): 0.143
[36]
  glycan array binding signal (z-score): 0.027
[37]
  glycan array binding signal (z-score): 0.368
[38]
  glycan array binding signal (z-score): 0.097
[39]
  glycan array binding signal (z-score): 0.876
[40]
  glycan array binding signal (z-score): 0.523
[41]
  glycan array binding signal (z-score): -0.418
[42]
  glycan array binding signal (z-score): 0.211
[43]
  glycan array binding signal (z-score): -0.192
[44]
  glycan array binding signal (z-score): -0.445
[45]
  glycan array binding signal (z-score): -0.455
